In all, about 110,000 compounds were measured (“z-score”: median about -0.1, highest 2% from about 2 on). The list shows a part of the results.

In the test the target is Metabotropic glutamate receptor 8 (Rattus norvegicus) (UniProt P70579). Briefly: mGluR8 Gi/Go-coupled signaling modulation – cell-based, rat, thallium flux, HTS, primary screen (AID 488969). The note with it: HEK293 rat mGluR8, GIRK (G protein-gated inwardly rectifying potassium channel) thallium flux, FluoZin2; at 10 µM; stronger effect = higher value; submaximal glutamate (EC20) added with thallium.
UniProt P70579, sequence (P70579 whole entry, looked up): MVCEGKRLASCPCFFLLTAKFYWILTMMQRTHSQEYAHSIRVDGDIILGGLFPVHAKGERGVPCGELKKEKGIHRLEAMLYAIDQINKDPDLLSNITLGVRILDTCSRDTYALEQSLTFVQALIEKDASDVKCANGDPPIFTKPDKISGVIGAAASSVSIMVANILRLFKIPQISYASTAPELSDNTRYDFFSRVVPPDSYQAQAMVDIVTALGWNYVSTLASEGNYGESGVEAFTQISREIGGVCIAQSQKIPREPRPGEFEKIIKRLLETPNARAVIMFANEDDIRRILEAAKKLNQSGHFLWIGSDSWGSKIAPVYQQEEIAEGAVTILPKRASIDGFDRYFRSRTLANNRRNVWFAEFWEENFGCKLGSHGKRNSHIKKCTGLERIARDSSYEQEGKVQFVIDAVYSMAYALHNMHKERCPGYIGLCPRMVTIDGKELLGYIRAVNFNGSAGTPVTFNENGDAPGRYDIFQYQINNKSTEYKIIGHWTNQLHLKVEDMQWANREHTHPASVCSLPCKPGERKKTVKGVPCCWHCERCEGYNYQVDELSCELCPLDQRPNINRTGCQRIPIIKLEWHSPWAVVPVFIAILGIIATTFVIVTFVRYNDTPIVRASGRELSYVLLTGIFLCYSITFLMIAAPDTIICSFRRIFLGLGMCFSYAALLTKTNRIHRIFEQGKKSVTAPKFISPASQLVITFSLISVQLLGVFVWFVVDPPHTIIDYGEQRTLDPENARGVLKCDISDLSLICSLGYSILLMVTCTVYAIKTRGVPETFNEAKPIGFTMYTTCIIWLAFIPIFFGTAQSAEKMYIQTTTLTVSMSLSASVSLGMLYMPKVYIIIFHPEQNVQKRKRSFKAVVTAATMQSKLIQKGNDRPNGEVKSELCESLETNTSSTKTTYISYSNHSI
`Cc1ccc(C2(C)NC(=O)N(CC(=O)Nc3c(C)n(C)n(-c4ccccc4)c3=O)C2=O)cc1` (centres undefined) had a z-score of -0.208.
Under `Cc1ccc(NC(=O)c2cn(CCC#N)nc2-c2cccs2)c([N+](=O)[O-])c1` stands -0.0985; under `CCc1ccc(C(=O)/C=C/c2ccc([N+](=O)[O-])o2)cc1`, 0.113; under `O=C(c1ccccc1-c1nc(-c2ccc(Cl)cc2)no1)N1CCCC1`, -0.446.
Under `O=C(Oc1cccc(NC(=O)c2ccco2)c1)c1cccc(S(=O)(=O)N2CCCCC2)c1` stands -0.064; under `CC(CNCC1CCCO1)COc1ccccc1` (centres undefined), 0.0848.
Under `CC(C)(C)Nc1nc(N2CCCC2)nc(N2CCCC2)n1` stands -0.14; under `CCCOc1ccc(C(=O)C(CCC(CNCC)C(=O)c2ccc(OCCC)cc2)CNCC)cc1` (centres undefined), 1.9; under `CCOC(=O)c1cc(C)sc1N1C(=O)C2C3C=CC(C3)C2C1=O` (centres undefined), -0.94.
Regarding `O=C(c1ncc[nH]1)c1ccco1`, the z-score was -2.2.
Under `CC1CCN(C(=S)NCCc2ccccc2)CC1` stands -0.0312; under `O=[N+]([O-])c1cc(-c2nc3nc4ccccc4nc3n2CCc2ccccc2)cc([N+](=O)[O-])c1`, -0.354; under `Cc1ccccc1C(=O)NNC(=O)C(=O)N1CCCCC1`, -0.181.
Regarding `COc1ccc(CN(CCN(C)C)Cc2ccccc2)c(OC)c1`, the z-score is -0.114.
Under `O=c1nc(Nc2ccccc2)sc2ccc([N+](=O)[O-])cc12` stands 0.119; under `CN(C)CCCSc1nc(-c2ccccc2)nc2c1CCC2`, 0.263.
As for `Cc1nn(-c2ccccc2)c(N)c1N=Nc1ccc(Cl)cc1`, the figure is -0.172; as for `O=C(COc1ccccc1)Nc1ccc(Cl)c(-c2nc3ncccc3o2)c1`, 0.571.
As for `CCOC(=O)c1c(NC(=O)COC)sc(C)c1C`, the figure is -1.71.
The molecule `CCCCOC(=O)c1cc(-c2ccc(/C=N/n3cnnc3)o2)ccc1Cl` came in with a z-score of -0.536.
As for `COc1ccccc1C1(CC(=O)N2CCCCC2)CCOC(C(C)C)C1` (centres undefined), the figure is -0.108; as for `C=CCSC1=C(C#N)C(c2ccc(OCC)cc2)CC(=O)N1` (centres undefined), -0.68.
Under `CC(C)c1ccc(C2NC(=O)NC3=C2CCc2ccccc23)cc1` (centres undefined) stands -1.97.
As for `Cc1ccc(-c2nn(-c3ccccc3)cc2CSC(=N)N)cc1`, the figure is 1.43; as for `COc1ccc(N2CCN(/C(=N\S(=O)(=O)c3ccccc3)Nc3nc(C)cc(C)n3)CC2)cc1`, -0.27; as for `Cc1ccc(-c2nn(-c3ccccc3)cc2C(=O)Nc2cccc(S(=O)(=O)N3CCOCC3)c2)cc1`, -0.18.
`O=C(O)c1cccnc1SC1CC(=O)N(c2cccc(C(F)(F)F)c2)C1=O` (centres undefined) yielded a z-score of 0.224.
As for `COc1cccc(C(=O)Nc2nc(C)cs2)c1`, the figure is 0.159.
Under `Cc1cc(Nc2ccccc2)c2c([N+](=O)[O-])cc(C)c(C)c2n1` stands -0.275; under `Cc1ccc(N/C=C/C(=O)c2sc(-c3ccccc3)nc2C)cc1`, -0.176; under `Cc1ccc(C(C)C)c(OCCCN2CC(C)OC(C)C2)c1` (centres undefined), 0.0811.
`Cc1sc2nc(C)n(/N=C/c3ccccc3)c(=O)c2c1C` displayed a z-score of 1.25.
Under `O=C(O)c1ccc(NC(CSCc2cccc(F)c2)C(=O)O)c([N+](=O)[O-])c1` (centres undefined) stands -0.0333; under `Cn1ccnc1C(O)(c1nnc(-c2ccccc2)o1)C(F)(F)F` (centres undefined), -1.19; under `COc1ccc(-c2nn(C)c(=O)c3ccccc23)cc1NC(=O)Cn1nc(C)c2ccccc2c1=O`, -0.146.
The molecule `Cc1ccc(C(=O)NC2CCCCCC2)cc1N1CCCC1=O` registered a z-score of 1.6.
As for `CCOC(=O)c1c2n(c3ccc(O)cc13)CCC2`, the figure is -0.715.
`COc1ccc(Nc2cc(C(=O)NCc3ccco3)c3ccccc3n2)c(OC)c1`: the z-score is -0.421.
As for `COc1cccc(C2C3=C(CC(C)(C)CC3=O)OC(N)=C2[N+](=O)[O-])c1` (centres undefined), the figure is -0.0905; as for `CCOCc1nc(C)c(Cl)c(NS(=O)(=O)c2ccc(N)cc2)n1`, -0.149; as for `Cc1ccc(S(=O)(=O)NCC(c2ccccc2)N2CCN(CCC#N)CC2)cc1` (centres undefined), -0.26.
As for `Cc1cc(=O)n(C)c(=O)n1CCCCCCN1CCCC1`, the figure is 0.0302; as for `CC1(C)COC(c2cc([N+](=O)[O-])ccc2Cl)=N1`, -0.41.
Under `Cc1cc(C)n(C(=O)c2ccc(Cn3nc(C)c(Br)c3C)o2)n1` stands 0.0818; under `Cc1ccc(C(C(=O)NC2CCCCC2)N(C(=O)CCCC(=O)Nc2ccccn2)c2ccc3c(c2)OCCO3)cc1` (centres undefined), -0.444; under `O=C(NCc1nnc(SCC(=O)N2CCCC2)o1)c1c(F)cccc1Cl`, -0.244.
`CC(C)(C)NC(=O)NC(=O)COC(=O)c1ccc(OC(F)(F)F)cc1`: the z-score was -0.17.
As for `CC1=C(C(=O)OC(C)C)C(c2ccc(Br)s2)NC(=O)N1` (centres undefined), the figure is 0.0825; as for `CCOC(=O)C1CCN(S(=O)(=O)Cc2ccc(Cl)cc2)CC1`, -0.135; as for `O=S(=O)(NC1=NCCC1)c1ccc(F)cc1`, -0.444.
In the case of `O=S(=O)(Nc1cccc(-c2cn3cccnc3n2)c1)c1ccc(F)cc1`, the z-score came out at 0.0648.
As for `O=C(NCc1ccco1)/C(=C/c1cccnc1)NC(=O)c1cccc(Br)c1`, the figure is -0.00332; as for `Clc1ccc2oc(-c3cccnc3NCc3ccccc3)nc2c1`, 0.164; as for `CCOC(=O)c1c(-c2cccc3ccccc23)csc1NC(=O)C1C2CCC(O2)C1C(=O)O` (centres undefined), -0.499.
In turn, `Cc1cc(C)n(-c2ccc(C(=O)OCc3ccccc3)cc2)n1` returned a z-score of -1.03.
Under `Cc1cc(C)n(CC(=O)c2ccc(Br)cc2)c(=O)c1C#N` stands -0.298; under `CCn1c(COc2ccccc2)nnc1SCC(=O)Nc1cc(C)ccc1OC`, -0.562.
Under `CC(=O)Nc1cc(C)c(S(C)(=O)=O)c(C)c1` stands 0.104; under `CC(C)Nc1nnc(SCC(=O)Nc2ccc3c(c2)C(=O)c2ccccc2C3=O)s1`, -0.456.
As for `COc1cc(NC(=O)c2ccc(Cl)cc2Cl)ccc1-c1cc2ccccc2oc1=O`, the figure is -0.00523.
Turning to `COc1ccccc1NC(=O)c1nn(-c2ccccc2)ccc1=O`, the z-score is -0.0727.
As for `Cc1cc(C)cc(CC2CC(=O)N(c3ccc4c(c3)OCCO4)C2=O)c1` (centres undefined), the figure is -0.0115; as for `Cc1cc(C)cc(C(=O)NCC(=O)OCc2c(C)noc2C)c1`, 1.47; as for `Cn1c(=O)[nH]c(=O)c2c1ncn2CCN1CCOCC1`, -0.0825.
`Cc1ccc(C(C)C)cc1OCCCCN1CCCC1` registered a z-score of 0.832.
Under `COc1ccc(C2NC(c3ccc(OC)c(OC)c3OC)C(C)C(=O)C2C)c(OC)c1OC` (centres undefined) stands -0.00134; under `N/C(=N\OS(=O)(=O)c1cc(Cl)ccc1Cl)c1ccncc1`, -0.52; under `Cc1ccc(C(C(=O)NC(C)(C)C)N(Cc2cccs2)C(=O)c2csnn2)cc1` (centres undefined), -0.225.
Under `Cc1c(S(=O)(=O)N2CCN(c3cccc(C(F)(F)F)c3)CC2)c(=O)n(C)c(=O)n1C` stands 0.21.

These data come from PubChem BioAssay AID488969 (Vanderbilt High Throughput Screening Facility, 2010).
